Data as given in the supplement of paper PMC12217912.
This is one part of the list. Sequences were assembled here from the parent chain. Values near 0.05 are background.

B1: TEV protease; numbered along this chain (parent)
chain: MGESLFKGPRDYNPISSSICHLTNESDGHTTSLYGIGFGPFIITNKHLFRRNNGTLVVQSLHGVFKVKDTTTLQQHLVDGRDMIIIRMPKDFPPFPQKLKFREPQREERICLVTTNFQTKSMSSMVSDTSCTFPSGDGIFWKHWIQTKDGQCGSPLVSTRDGFIVGIHSASNFTNTNNYFTSVPKNFMELLTNQEAQQWVSGWRLNADSVLWGGHKVFMVKPEEPFQPVKEATQL

Variants of: B1
Experiment: raw area under fraction-flipped curve 0-4 h after induction (AUC4h, not background-subtracted), DNA-recorder readout of cleavage of the substrate (dimensionless); higher = more cleavage of the substrate by the protease variant
Details: temperature: 34 °C; time window: 0-4 h after rhamnose induction
Experimental: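 In vivo DNA recorder in E. coli TOP10(DE3) ΔrhaA at 34 °C. Each TEVp single-site mutant (parent TEVp 0) is paired with a single-site variant of the 7-mer TEVs (canonical ENLYFQ|S). The substrate sits between flexible linkers in a Bxb1-sfGFP-TEVs-SsrA fusion, so cleavage stabilises Bxb1 and speeds flipping of a recombination array, read by NGS. The value is the raw area under the fraction-flipped curve over 0-4 h after rhamnose induction (AUC4h), with ≥20 reads per time point. It is not background-subtracted; inactive controls average about 0.047.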
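Further: Bxb1 expression induced with 0.2% (w/v) L-rhamnose at OD600 near 0.5, cultures sampled hourly, flipped fraction per protease–substrate barcode pair counted by paired-end Illumina sequencing.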

| Variant | area with substrate ENLYAQS | area with substrate ENLYDQS | area with substrate ENLYEQS | area with substrate ENLYGQS | area with substrate ENLYHQS | area with substrate ENLYIQS | area with substrate ENLYKQS | area with substrate ENLYLQS | area with substrate ENLYMQS | area with substrate ENLYNQS | area with substrate ENLYPQS | area with substrate ENLYQQS | area with substrate ENLYRQS | area with substrate ENLYSQS | area with substrate ENLYTQS | area with substrate ENLYVQS | area with substrate ENLYWQS | area with substrate ENLYYQS | area with substrate ENLYCQS |
| --- | --- | --- | --- | --- | --- | --- | --- | --- | --- | --- | --- | --- | --- | --- | --- | --- | --- | --- | --- |
| S154R | 0.0569 | 0.0617 | 0.0623 | 0.0629 | 0.0588 | 0.0771 | 0.0739 | 0.059 | 0.0646 | 0.0503 | 0.062 | 0.0499 | 0.0325 | 0.0725 | 0.077 | 0.0857 | 0.0416 | 0.0494 |  |
| N175E | 0.0563 | 0.0439 |  | 0.0467 | 0.051 |  |  |  | 0.0732 |  |  | 0.0529 |  | 0.0663 |  | 0.0682 |  | 0.0655 |  |
| T181P | 0.039 | 0.0701 | 0.0478 | 0.0587 | 0.0588 | 0.0578 | 0.0526 |  | 0.0599 | 0.062 | 0.0572 | 0.0594 | 0.055 |  | 0.0593 |  | 0.0862 |  |  |
| L22N | 0.0544 | 0.045 | 0.0702 | 0.0436 | 0.0525 | 0.0477 | 0.0386 |  | 0.0623 | 0.0477 | 0.0441 | 0.0444 | 0.0474 |  | 0.0501 |  | 0.034 |  |  |
| T129C | 0.077 | 0.0684 | 0.0649 | 0.0741 | 0.0652 | 0.0918 | 0.0718 |  | 0.0843 | 0.07 |  | 0.0681 | 0.0683 | 0.0571 |  | 0.098 | 0.0458 |  |  |
| R10E | 0.05 | 0.0681 | 0.0627 | 0.0623 | 0.0751 | 0.111 | 0.0619 |  | 0.0868 | 0.0511 | 0.0803 | 0.0533 | 0.0582 | 0.064 | 0.0927 | 0.103 | 0.0718 | 0.0591 |  |
| F133V | 0.0597 | 0.064 | 0.0707 |  | 0.0612 | 0.104 | 0.059 | 0.0713 | 0.0828 | 0.0588 | 0.0747 | 0.0584 | 0.0593 | 0.0557 |  | 0.124 |  | 0.0645 |  |
| E223M | 0.0687 | 0.0634 | 0.0616 | 0.0542 | 0.0631 | 0.119 | 0.0567 |  |  | 0.0682 | 0.0593 | 0.068 | 0.0573 | 0.0726 | 0.11 | 0.101 | 0.051 |  |  |
| L33G | 0.0717 | 0.0682 | 0.069 | 0.0552 | 0.0685 | 0.0819 | 0.0642 |  |  | 0.0565 | 0.0833 | 0.0597 | 0.0704 | 0.071 |  | 0.0796 | 0.0822 | 0.0494 |  |
| G37V | 0.0602 | 0.0624 | 0.0522 | 0.0545 | 0.0564 | 0.0921 | 0.0172 | 0.0646 | 0.0713 | 0.0777 | 0.0665 | 0.0215 | 0.0562 | 0.0656 | 0.0528 | 0.0974 | 0.091 |  | 0.0665 |
| L211P | 0.072 | 0.0619 |  | 0.095 | 0.0563 | 0.0878 |  |  |  |  | 0.0703 |  | 0.0514 |  |  |  |  |  |  |
| T55F | 0.0714 | 0.0585 | 0.0687 | 0.0571 | 0.0719 | 0.122 | 0.0514 |  |  | 0.0848 | 0.0766 |  |  |  |  | 0.113 | 0.0611 | 0.0864 |  |
